± gives the standard deviation of the averaged measurements. This is one part of the list.
The sequences below were run on PfAP2-I AP2 domain 3 (GST-tagged) (assay: gcPBM binding intensity (ln(normalized median fluorescence intensity)); higher = stronger DNA binding).
How it was run: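 Each value is the highest Masliner-normalised natural-log median intensity across replicate spots of either orientation of a probe. The probes were primer-extended double-stranded 36-bp intergenic genomic sequences on an Agilent 4 × 180k array, alongside negative controls, exposed for 1 h to GST-tagged P. falciparum DNA-binding domains expressed in E. coli. Bound protein was picked up with Alexa488 anti-GST antibody and scanned at 488 nm.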
In the case of “AGAGAGAAAGCTATAACATGCAACAATTTTTAGAAA [TGCATGCA_site95]”, the “gcPBM binding intensity (ln)” value is reported as 7.58 ± 0.77. In the case of “TCAGAGTGAAGTTATACACACATGGTTTTTTTTTTT [CACACA_site2116]”, the “gcPBM binding intensity (ln)” value is reported as 7.32 ± 0.53. For “AGGAGGATATTACACAGTACCCAGTAACTCTACGGA [XGTACX_site1998]”, the “gcPBM binding intensity (ln)” value was 7.61 ± 0.52. “AAGTATGCGTTATATACACACATACATTTATATATC [CACACA_site6207]” was tested, and the “gcPBM binding intensity (ln)” value was 7.84 ± 0.52. With “AAAAATGGTGTTAACACACACATATAAATAAATATA [CACACA_site6412]” the “gcPBM binding intensity (ln)” value was 7.79 ± 0.27. In the case of “AACATAAGTAATATTTGTACATATATAATAATATAT [XGTACX_site5123]”, the “gcPBM binding intensity (ln)” value is reported as 7.49 ± 0.41. With “TAAATGTGAAATTTTATATTTTATATAATATACAAT [CACACA_negctrl_site76]” the “gcPBM binding intensity (ln)” value was 7.34 ± 0.52. In the case of “AAGGATCACCCACAAACACACATATATATATATATA [CACACA_site559]”, the “gcPBM binding intensity (ln)” value is reported as 9.71 ± 0.46. With “CTCTTATACATATTCCTGCACTTATTTTTAAAAACA [GTGCAC_site9620]” the “gcPBM binding intensity (ln)” value was 9.79 ± 0.3. With “ATCATATTTTTATGTGTGCACTTTTTTTTTTTTTTT [GTGCAC_site9555]” the “gcPBM binding intensity (ln)” value was 10.25 ± 0.014. “CAATTCTTAAGTTCTTGTACGAAAAACGACAATTTA [XGTACX_site3890]” was tested, and the “gcPBM binding intensity (ln)” value was 7.47 ± 0.38. In the case of “ACACATATATATATATATATATATATATATATATAT [CACACA_negctrl_site1766]”, the “gcPBM binding intensity (ln)” value is reported as 9.25 ± 0.52. With “AAGAAAAATAATTAGGGTGAAAATATATAGAGTAAA [TGCATGCA_negctrl_site590]” the “gcPBM binding intensity (ln)” value was 7.68 ± 0.51. With “TATTATATAAAATATTTTATTATATCATCTTCTCTA [XGTACX_negctrl_site319]” the “gcPBM binding intensity (ln)” value was 7.42 ± 0.59. For “GGTAATAATATGCATAGTACATAATATATATATATA [XGTACX_site6793]”, the “gcPBM binding intensity (ln)” value was 9.29 ± 0.51. With “ATAATATAAATAATTATACACACTTAATATATATAT [CACACA_site2782]” the “gcPBM binding intensity (ln)” value was 8.66 ± 0.16. For “GTATGTATGTATGTATGTACGTATTTATTTATTTAA [XGTACX_site726]”, the “gcPBM binding intensity (ln)” value was 8.77 ± 0.28. In the case of “TATATATATATATATACACACATATATATATTTTTC [CACACA_site3983]”, the “gcPBM binding intensity (ln)” value is reported as 9.57 ± 0.44. “AATACCTATGGAATTAATAATATGTGTACAGACACA [TGCATGCA_negctrl_site547]” was tested, and the “gcPBM binding intensity (ln)” value was 7.945 ± 0.064. “AACAATGGATTATTCACACATAAAAAAATTCACATT [CACACA_site5437]” was tested, and the “gcPBM binding intensity (ln)” value was 7.55 ± 0.54. For “ATCATTATATTATGGTGTACCCATATATAATTATCA [XGTACX_site551]”, the “gcPBM binding intensity (ln)” value was 7.83 ± 0.28. “CATTAAACCGTGGGAGCACACACACCCACCCACCCA [CACACA_site8000]” was tested, and the “gcPBM binding intensity (ln)” value was 8.49 ± 0.76. In the case of “AATTTAAAGAATTGTAGTACAATGAAATATATATAA [XGTACX_site7970]”, the “gcPBM binding intensity (ln)” value is reported as 7.89 ± 0.44. For “AAAAAAATATATATATGTACATAACTTTGTTGTGAT [XGTACX_site5243]”, the “gcPBM binding intensity (ln)” value was 7.71 ± 0.44. “TTTGAACATTTTGCAAGTACAAAAAAATAATATATC [XGTACX_site8079]” was tested, and the “gcPBM binding intensity (ln)” value was 7.82 ± 0.47. In the case of “TGTTAAATTATTTATCAGATTATTATTTGTAAATAA [CACACA_negctrl_site1535]”, the “gcPBM binding intensity (ln)” value is reported as 7.17 ± 0.47. “GGAACTTAAAAAAAATGTACTTATAAAAAAGGAAAT [XGTACX_site8186]” was tested, and the “gcPBM binding intensity (ln)” value was 7.82 ± 0.6. For “AAGAAAAGCATAGATGCACACATATATATATATATA [CACACA_site8675]”, the “gcPBM binding intensity (ln)” value was 9.485 ± 0.078. For “AACATGCAAACATGCACACAGAAAAAAAAAATATAT [CACACA_site1565]”, the “gcPBM binding intensity (ln)” value was 8.43 ± 0.3. In the case of “TTACACATACATATGTGGGAAAATATTGCTACATAT [CACACA_negctrl_site463]”, the “gcPBM binding intensity (ln)” value is reported as 7.8 ± 0.72. In the case of “TTTTCTACATCTTGTTGTACGAAAAATAAAAAAAAT [XGTACX_site4620]”, the “gcPBM binding intensity (ln)” value is reported as 8.09 ± 0.28. With “AGTACGTAAATTATAATACACACTATAGGATATTCT [CACACA_site2559]” the “gcPBM binding intensity (ln)” value was 7.8 ± 0.69. “TTTTAAACAGGACACACACACATATATATATATATA [CACACA_site4664]” was tested, and the “gcPBM binding intensity (ln)” value was 9.43 ± 0.46. With “AAAATTATATATTTTAGTACATAAAATATTGACATA [XGTACX_site2581]” the “gcPBM binding intensity (ln)” value was 7.53 ± 0.5. “ATGTAATGTTATGTTATGTTTTTTTTTTTTTTGTGT [CACACA_negctrl_site1264]” was tested, and the “gcPBM binding intensity (ln)” value was 7.68 ± 0.27. With “GGAATATGTATATTTTGTACGTATACATTTTTTGGG [XGTACX_site7681]” the “gcPBM binding intensity (ln)” value was 8.07 ± 0.83. “GTTATTGTAAAAAGATTACACACGTTCTATATACTT [CACACA_site2473]” was tested, and the “gcPBM binding intensity (ln)” value was 7.8 ± 0.62. With “GATATATTTTATATATGTACATACAGTGGTAAATAT [XGTACX_site1324]” the “gcPBM binding intensity (ln)” value was 8.35 ± 0.43. In the case of “TTTATACAAAAAAACAAAATCAAACAAAAAAAAAAA [CACACA_negctrl_site252]”, the “gcPBM binding intensity (ln)” value is reported as 8.11 ± 0.95. For “TATATATGTATCATTACACACATGTATACTTATTTG [CACACA_site4138]”, the “gcPBM binding intensity (ln)” value was 7.64 ± 0.46. For “TGTATAAATATATATACACACATATTTATATATATA [CACACA_site755]”, the “gcPBM binding intensity (ln)” value was 8.29 ± 0.66. For “TACATTTGTATAAATAGTACGCGAAAACAAAAAAAA [XGTACX_site6246]”, the “gcPBM binding intensity (ln)” value was 8.21 ± 0.43. For “ATATATGTGCCCATATATATATATATAAATATATGT [GTGCAC_negctrl_site226]”, the “gcPBM binding intensity (ln)” value was 7.97 ± 0.36.

Source: the supplement of paper PMC11417369
